The supplement of paper PMC4967469
By IC50 is meant the dose at which the fit gives 50% viability; where the fit passes the top or lowest dose, that dose stands as a limit. The AUC spans the tested range (256-fold, ending at the top dose) of the same fit; the more sensitive the line, the further below 1. For some of these results: A top dose marked as inferred was derived from the fitted curves, not read from the paper. For some of these results: An entry number marks a drug with two screens in the source, which often give different values.

Tests used:
Assay in all cases: Viability of human cancer cell lines after 72 h of drug (GDSC screen)
TW-37 = compound: CC(C)c1ccccc1Cc1cc(C(=O)Nc2ccc(S(=O)(=O)c3ccccc3C(C)(C)C)cc2)c(O)c(O)c1O [TW-37]; conditions: top dose 5 µM
Description: (§1)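 Human cancer cell lines in 384-well plates, medium with 10% serum, drug for 72 h over a 256-fold dose range (nine 2-fold or five 4-fold steps up to the top dose). Adherent lines were fixed and stained with the nucleic acid dye Syto60, suspension lines read with resazurin; signal relative to control wells, capped at 0 and 100%. One two-parameter sigmoid per drug and line, fitted in a mixed model over all curves with the slope shared within a line.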

Gemcitabine = compound: Nc1ccn([C@@H]2O[C@H](CO)[C@@H](O)C2(F)F)c(=O)n1 [Gemcitabine]; conditions: top dose 1.024 µM
Description: as §1

Bicalutamide = compound: CC(O)(CS(=O)(=O)c1ccc(F)cc1)C(=O)Nc1ccc(C#N)c(C(F)(F)F)c1 [Bicalutamide]; conditions: top dose inferred
Description: as §1

GNF-2 = compound: NC(=O)c1cccc(-c2cc(Nc3ccc(OC(F)(F)F)cc3)ncn2)c1 [GNF-2]; conditions: top dose 1.28 µM; top dose inferred
Description: as §1

T0901317 = compound: O=S(=O)(c1ccccc1)N(CC(F)(F)F)c1ccc(C(O)(C(F)(F)F)C(F)(F)F)cc1 [T0901317]; conditions: top dose 10.24 µM; top dose inferred
Description: as §1

AUY922 = compound: CCNC(=O)c1noc(-c2cc(C(C)C)c(O)cc2O)c1-c1ccc(CN2CCOCC2)cc1 [AUY922]; conditions: top dose 0.256 µM; top dose inferred
Description: as §1

Nilotinib = compound: Cc1cn(-c2cc(NC(=O)c3ccc(C)c(Nc4nccc(-c5cccnc5)n4)c3)cc(C(F)(F)F)c2)cn1 [Nilotinib]; conditions: top dose 2 µM
Description: as §1

LFM-A13 = compound: C/C(O)=C(\C#N)C(=O)Nc1cc(Br)ccc1Br [LFM-A13]; conditions: top dose 16 µM; top dose inferred
Description: as §1

KIN001-270 = compound: Cc1ccc(Nc2cc(-c3cccc(N4C(=O)c5ccccc5C4=O)c3)ncn2)cc1NS(C)(=O)=O [KIN001-270]; conditions: top dose 20 µM; top dose inferred
Description: as §1

MP470 = compound: S=C(NCc1ccc2c(c1)OCO2)N1CCN(c2ncnc3c2oc2ccccc23)CC1 [MP470]; conditions: top dose 20 µM; top dose inferred
Description: as §1

[1] = top dose 1.024 µM, screen: GDSC drug entry 150
[2] = top dose 10 µM, screen: GDSC drug entry 1502

Cell Line	AUC (TW-37)	IC50 (TW-37) [nM]	AUC (Gemcitabine)	IC50 (Gemcitabine) [nM]	AUC (Bicalutamide; [1])	IC50 (Bicalutamide; [1]) [nM]	AUC (Bicalutamide; [2])	IC50 (Bicalutamide; [2]) [nM]	AUC (GNF-2)	IC50 (GNF-2) [nM]	AUC (T0901317)	IC50 (T0901317) [nM]	AUC (AUY922)	IC50 (AUY922) [nM]	AUC (Nilotinib)	IC50 (Nilotinib) [nM]	AUC (LFM-A13)	IC50 (LFM-A13) [nM]	AUC (KIN001-270)	IC50 (KIN001-270) [nM]	AUC (MP470)	IC50 (MP470) [nM]
NCI-H1975 (lung adenocarcinoma, adherent)	0.599	609	0.413	35.7	0.983	> 1020	0.971	> 10000	0.983	> 1280	0.966	> 10200	0.409	8.66	0.981	> 2000	0.968	> 16000	0.978	> 20000	0.934	> 20000
NCI-H2081 (small cell lung carcinoma, suspension)	0.86	4610	0.657	179	0.989	> 1020	0.98	> 10000	0.989	> 1280	0.963	> 10200	0.845	202	0.965	> 2000	0.976	> 16000	0.984	> 20000	0.895	> 20000
NCI-H2135 (non-small cell lung carcinoma, adherent)	0.972	> 5000	0.469	52.8	0.991	> 1020	0.985	> 10000	0.991	> 1280	0.991	> 10200	0.577	25.7	0.991	> 2000	0.98	> 16000	0.927	> 20000	0.944	> 20000
NCI-H2141 (small cell lung carcinoma, suspension)	0.602	589	0.742	307	0.99	> 1020	0.99	> 10000	0.99	> 1280	0.99	> 10200	0.843	173	0.987	> 2000	0.974	> 16000	0.99	> 20000	0.897	> 20000
NCI-SNU-1 (stomach, suspension)	0.813	2820	0.126	< 4	0.985	> 1020	0.985	> 10000	0.988	> 1280	0.959	> 10200	0.424	9.84	0.981	> 2000	0.983	> 16000	0.916	> 20000	0.905	> 20000
NCI-SNU-5 (stomach, suspension)	0.658	866	0.537	80.9	0.989	> 1020	0.978	> 10000	0.989	> 1280	0.983	> 10200	0.776	103	0.986	> 2000	0.989	> 16000	0.989	> 20000	0.935	> 20000
NCI-SNU-16 (stomach, suspension)	0.972	> 5000	0.991	> 1020	0.989	> 1020	0.99	> 10000	0.991	> 1280	0.966	> 10200	0.991	> 256	0.99	> 2000	0.991	> 16000	0.991	> 20000	0.951	> 20000
NEC8 (testis, adherent)	0.302	96.2	0.242	13.3	0.991	> 1020			0.976	> 1280	0.985	> 10200	0.609	30.3	0.987	> 2000	0.986	> 16000	0.841	11000	0.99	> 20000
NH-12 (neuroblastoma, adherent)	0.5	312	0.44	43.1	0.985	> 1020			0.984	> 1280	0.983	> 10200	0.654	45.4	0.984	> 2000	0.963	> 16000	0.958	> 20000	0.908	> 20000
NKM-1 (acute myeloid leukaemia, suspension)	0.469	256	0.044	< 4	0.976	> 1020	0.969	> 10000	0.977	> 1280	0.884	> 10200	0.343	5.76	0.806	1050	0.969	> 16000	0.953	> 20000	0.929	> 20000
NMC-G1 (glioma, adherent)	0.576	529	0.255	10.6	0.982	> 1020	0.972	> 10000	0.978	> 1280	0.98	> 10200	0.527	19.3	0.972	> 2000	0.94	> 16000	0.961	> 20000	0.925	> 20000
